Data from the supplement of paper PMC4604168 (melanoma cell lines).
This is one part of the list. Single values are uncertain, as repeats are few or missing.

Columns and labels:
Assay in all cases: cell count relative to DMSO control; melanoma cells; higher = more viable cells
Details in all cases: library dose: low library concentration; 72 h; first compound 0.4 µM
COLO792 = system: COLO792
COLO800 = system: COLO800
COLO829 = system: COLO829
G361 = system: G361
IPC-298 = system: IPC-298
IST-MEL1 = system: IST-MEL1
LB2518-MEL = system: LB2518-MEL
LOXIMVI = system: LOXIMVI
MEL-HO = system: MEL-HO
MZ2-MEL = system: MZ2-MEL
MeWo = system: MeWo
RPMI7951 = system: RPMI7951
RVH-421 = system: RVH-421
SkMel28 = system: SkMel28
SkMel2 = system: SkMel2
SkMel30 = system: SkMel30
SkMel5 = system: SkMel5
UACC257 = system: UACC257
UACC62 = system: UACC62
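Note: cell number obtained by counting DAPI-stained nuclei in high-throughput microscope images with image analysis software, screen run in 1,536-well plates.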

Compound | cell count (COLO792) | cell count (COLO800) | cell count (COLO829) | cell count (G361) | cell count (IPC-298) | cell count (IST-MEL1) | cell count (LB2518-MEL) | cell count (LOXIMVI) | cell count (MEL-HO) | cell count (MZ2-MEL) | cell count (MeWo) | cell count (RPMI7951) | cell count (RVH-421) | cell count (SkMel28) | cell count (SkMel2) | cell count (SkMel30) | cell count (SkMel5) | cell count (UACC257) | cell count (UACC62)
CCCCCCCCCCCCCCCCCCOP(=O)([O-])OC1CC[N+](C)(C)CC1 [Perifosine] + COC(=O)c1sccc1S(=O)(=O)Nc1ccc(Nc2ccccc2)cc1OC [GSK0660] (partner dose 1 µM) | 97.4% | 82.4% | 83.1% | 90.8% | 96.3% | 107% | 99.5% | 110% | 93.1% | 99.5% | 101% | 92.3% | 108% | 87.1% | 101% | 69.3% | 91.6% | 99.9% | 85.9%
Cn1sc(=O)n(Cc2ccccc2)c1=O + Oc1cc(-c2nc(-c3ccccc3)[nH]c2-c2ccncc2)ccc1Cl [L779450] (partner dose 0.2 µM) | 106% | 87.2% | 115% | 110% | 88.3% | 97% | 92.5% | 87.2% | 79.1% | 80.4% | 101% | 90.2% | 82.8% | 83.1% | 95.7% | 89.9% | 111% | 86% | 58.4%
CCCCCCCCCCCCCCCCCCOP(=O)([O-])OC1CC[N+](C)(C)CC1 [Perifosine] + COc1ccc(COc2ccc(Cc3cnc(N)nc3N)cc2OC)cc1 [GW2580] (partner dose 1 µM) | 118% | 89.8% | 115% | 98.2% | 99.3% | 105% | 105% | 82.2% | 109% | 107% | 95.6% | 104% | 108% | 113% | 102% | 116% | 110% | 88.5% | 122%
Cn1sc(=O)n(Cc2ccccc2)c1=O + COc1cc(Nc2ncc(F)c(Nc3ccc4c(n3)NC(=O)C(C)(C)O4)n2)cc(OC)c1OC [Tamatinib] (partner dose 0.4 µM) | 58.3% | 57.2% | 97.8% | 84.1% | 77.7% | 86% | 96.2% | 92.3% | 93.1% | 88.4% | 89.9% | 91% | 108% | 88.8% | 98.8% | 85.3% | 104% | 97% | 78.1%
CCCCCCCCCCCCCCCCCCOP(=O)([O-])OC1CC[N+](C)(C)CC1 [Perifosine] + COc1ccc(-c2ccc3c(N4CCOCC4)nc(N4C[C@@H](C)O[C@@H](C)C4)nc3n2)cc1CO [KU0063794] (partner dose 0.02 µM) | 97.5% | 70.1% | 114% | 104% | 89.1% | 101% | 100% | 73.6% | 95.4% | 103% | 97.9% | 60.1% | 98.1% | 89.7% | 93.3% | 96.1% | 88.4% | 85.8% | 90.9%
C[C@@H](N)c1ccc(C(=O)Nc2ccnc3[nH]ccc23)cc1 + O=C1NC(=O)/C(=C/c2ccc(-c3ccc(F)cc3O)o2)S1 [AS252424] (partner dose 1 µM) | 108% | 118% | 116% | 99.2% | 107% | 106% | 70.6% | 157% | 71.5% | 75.2% | 59.6% | 59.6% | 69.9% | 58% | 107% | 105% | 88.7% | 75.9% | 74.7%
CCCCCCCCCCCCCCCCCCOP(=O)([O-])OC1CC[N+](C)(C)CC1 [Perifosine] + CO[C@@H]1[C@H](N(C)C(=O)c2ccccc2)C[C@H]2O[C@]1(C)n1c3ccccc3c3c4c(c5c6ccccc6n2c5c31)C(=O)NC4 [Midostaurin] (partner dose 0.08 µM) | 89.2% | 83.4% | 99.1% | 102% | 96.1% | 96.7% | 83.7% | 104% | 99% | 91.5% | 89.5% | 37.7% | 91% | 65% | 80.5% | 88.4% | 108% | 67.1% | 28.7%
CCCCCCCCCCCCCCCCCCOP(=O)([O-])OC1CC[N+](C)(C)CC1 [Perifosine] + Cc1cc([N+](=O)[O-])ccc1NS(=O)(=O)c1cc(Cl)ccc1Cl [FH535] (partner dose 1 µM) | 84.6% | 128% | 98.1% | 107% | 88.8% | 85.7% | 96.7% | 133% | 89.2% | 94.2% | 96.9% | 67.9% | 105% | 85% | 92.1% | 104% | 85.3% | 76.8% | 73.4%
C[C@@H](N)c1ccc(C(=O)Nc2ccnc3[nH]ccc23)cc1 + CO[C@@H]1[C@H](N(C)C(=O)c2ccccc2)C[C@H]2O[C@]1(C)n1c3ccccc3c3c4c(c5c6ccccc6n2c5c31)C(=O)NC4 [Midostaurin] (partner dose 0.08 µM) | 83.5% | 96.8% | 79.9% | 82% | 99.7% | 86.4% | 116% | 91.2% | 80.6% | 90.1% | 71.9% | 78.5% | 63.9% | 71.9% | 97.8% | 118% | 83.8% | 54.8% | 84.4%
CCCCCCCCCCCCCCCCCCOP(=O)([O-])OC1CC[N+](C)(C)CC1 [Perifosine] + CC1(C)NC(=O)N(c2ccc([N+](=O)[O-])c(C(F)(F)F)c2)C1=O [nilutamide] (partner dose 1 µM) | 91.6% | 70.3% | 85.5% | 104% | 101% | 111% | 88.5% | 78.4% | 92.4% | 102% | 87.2% | 42.8% | 97.6% | 70.5% | 84.5% | 80.6% | 80.1% | 104% | 66.6%
Cn1sc(=O)n(Cc2ccccc2)c1=O + C=CCn1c(=O)c2cnc(Nc3ccc(N4CCN(C)CC4)cc3)nc2n1-c1cccc(C(C)(C)O)n1 [MK1775] (partner dose 0.02 µM) | 94.1% | 68.8% | 97.8% | 103% | 103% | 119% | 87.9% | 107% | 107% | 112% | 107% | 111% | 111% | 96.4% | 93.9% | 87.4% | 96.6% | 73.7% | 92.3%
C[C@@H](N)c1ccc(C(=O)Nc2ccnc3[nH]ccc23)cc1 + O=C(Nc1ccccc1)c1cc([N+](=O)[O-])ccc1Cl [GW9662] (partner dose 2 µM) | 107% | 103% | 125% | 97.9% | 114% | 104% | 132% | 51.3% | 94.4% | 83.5% | 80.7% | 87.6% | 126% | 84.8% | 109% | 126% | 85.4% | 83.3% | 81.3%
C[C@@H](N)c1ccc(C(=O)Nc2ccnc3[nH]ccc23)cc1 + COc1ccc2c(c1)CCC1C2CCC2(C)C(NCCCCCCN3C(=O)C=CC3=O)CCC12 [U73122] (partner dose 0.4 µM) | 83.2% | 108% | 61.5% | 87.2% | 109% | 99.4% | 116% | 59.7% | 84.8% | 81.2% | 86.9% | 66.2% | 67.4% | 77% | 100% | 82.9% | 95.8% | 78.8% | 79.3%
C[C@@H](N)c1ccc(C(=O)Nc2ccnc3[nH]ccc23)cc1 + CC(C)CCN1c2nc(Nc3cc(F)c(O)c(F)c3)ncc2N(C)C(=O)C1C [BID1870] (partner dose 0.2 µM) | 77.3% | 111% | 97.6% | 115% | 98.3% | 83.3% | 106% | 44.4% | 96.3% | 76.5% | 68.6% | 81.4% | 84.8% | 71% | 102% | 107% | 112% | 59.5% | 63.1%
CCCCCCCCCCCCCCCCCCOP(=O)([O-])OC1CC[N+](C)(C)CC1 [Perifosine] + CN(C)S(=O)(=O)c1ccc2c(c1)/C(=C/c1cc3c([nH]1)CCCC3)C(=O)N2 [SU6656] (partner dose 0.4 µM) | 96% | 85.9% | 98.3% | 76.5% | 100% | 102% | 106% | 145% | 115% | 105% | 85.5% | 88.9% | 98.2% | 92.9% | 101% | 90.2% | 80% | 82.1% | 83.3%
Cn1sc(=O)n(Cc2ccccc2)c1=O + Cc1cc([N+](=O)[O-])ccc1NS(=O)(=O)c1cc(Cl)ccc1Cl [FH535] (partner dose 1 µM) | 86.1% | 121% | 59.2% | 87.9% | 79.8% | 82.8% | 96.4% | 91.8% | 96.3% | 90.4% | 91% | 96.2% | 82.7% | 90.5% | 87.2% | 82.3% | 82.2% | 127% | 89%
CCCCCCCCCCCCCCCCCCOP(=O)([O-])OC1CC[N+](C)(C)CC1 [Perifosine] + Oc1cc(-c2nc(-c3ccccc3)[nH]c2-c2ccncc2)ccc1Cl [L779450] (partner dose 0.2 µM) | 103% | 151% | 106% | 92.4% | 82% | 102% | 84.6% | 125% | 80% | 79.1% | 111% | 54.2% | 74.2% | 79.5% | 97.9% | 97.4% | 107% | 96.5% | 68.9%
C[C@@H](N)c1ccc(C(=O)Nc2ccnc3[nH]ccc23)cc1 + COc1ccc(-c2ccc3c(N4CCOCC4)nc(N4C[C@@H](C)O[C@@H](C)C4)nc3n2)cc1CO [KU0063794] (partner dose 0.02 µM) | 101% | 132% | 112% | 121% | 97.1% | 97.9% | 96.2% | 79.3% | 95.1% | 73.2% | 73.6% | 64.2% | 83.3% | 87.3% | 104% | 106% | 81.9% | 84% | 60.9%
CCCCCCCCCCCCCCCCCCOP(=O)([O-])OC1CC[N+](C)(C)CC1 [Perifosine] + CC(C)CCN1c2nc(Nc3cc(F)c(O)c(F)c3)ncc2N(C)C(=O)C1C [BID1870] (partner dose 0.2 µM) | 85% | 87.4% | 122% | 90.8% | 94.1% | 91.4% | 101% | 113% | 102% | 104% | 88.6% | 93.2% | 96.4% | 95.2% | 103% | 84.5% | 100% | 98.6% | 81%
